According to PubChem BioAssay AID1346428 (National Center for Advancing Translational Sciences (NCATS), 2018):
Several values for one entry are separate records, joined by “and”; a condition that tells them apart may be missing. Equal entries are not always repeated. Screen size: about 48,000 compounds; about 1,200 (2.5%) were called active. Roughly 2% stayed inconclusive and do not appear here.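 Rule for the calls: active = activation of at least 60% and not above a set upper limit (about 1 call in 100 departs from these limits); inconclusive = activation of 40% to 60%, or above that upper limit; inactive = activation under 40%.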 The list shows a part of the results.

Target: Probable G-protein coupled receptor 32 (Homo sapiens) (UniProt O75388)
Chain of UniProt O75388 (O75388 whole entry, looked up): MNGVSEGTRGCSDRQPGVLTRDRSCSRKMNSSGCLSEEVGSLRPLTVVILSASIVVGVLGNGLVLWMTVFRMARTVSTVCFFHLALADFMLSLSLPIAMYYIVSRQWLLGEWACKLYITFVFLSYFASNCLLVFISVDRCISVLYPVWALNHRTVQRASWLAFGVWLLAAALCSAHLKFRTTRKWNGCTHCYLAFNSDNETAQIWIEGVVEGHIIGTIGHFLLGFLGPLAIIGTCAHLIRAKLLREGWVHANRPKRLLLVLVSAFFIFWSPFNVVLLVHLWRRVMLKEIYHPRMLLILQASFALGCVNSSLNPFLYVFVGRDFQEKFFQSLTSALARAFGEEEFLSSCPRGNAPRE
Test: qHTS for Agonists of Human Resolvin D1 Receptor DRV1; note: 0% is about no effect
Settings: CHO-K1 GPR32 beta-arrestin PathHunter luminescence, 90 min; at 76.9 µM; active compounds read high; zero percent set by DMSO-only wells
Summary of the method: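 Agonism was scored by beta-Gal fragment complementation (chemiluminescent read, 1 h detection at ambient temperature) reporting beta-arrestin binding to GPR32 in engineered CHO-K1 cells. Compound treatment lasted 90 min at 37 C, normalized to a DMSO basal control.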

Compound	activation
O=C(CCCn1ccc2cc(S(=O)(=O)N3CCCC3)ccc21)NCc1ccc(Cl)cc1	inactive: -7.63%
CC1CC(=O)N(CC(=O)Nc2ccc(F)cc2F)c2ccccc2S1 (stereo not drawn)	inactive: -1.65%
CCCn1c(=O)c(C)cn2nc(N)nc12	inactive: -6.32%
Cn1c(=O)[nH]c(=O)c2c1nc(NCCO)n2CC(O)COc1ccccc1 (stereo not drawn)	inactive: 26.8%
CCOc1ccc(/C=C/c2nc(C#N)c(Nc3ccc(OCC)cc3)o2)cc1	inactive: -15.5%
Cc1c(-c2ccccc2)c(=O)oc2c(CN3CCCC3)c(O)ccc12	inactive: -10.7%
CCc1ccc(C2CC(=O)NC(NC(=O)c3ccc(C(C)(C)C)cc3)=N2)cc1 (stereo not drawn)	inactive: 11.5%
Cc1nc2ccn(Cc3ccccc3)c(=O)c2cc1C(=O)NCc1ccccc1F	inactive: -12.2%
O=C(NCCc1ccc(Cl)cc1)c1ccc2c(c1)N(Cc1ccccc1F)C(=O)c1ccccc1S2(=O)=O	inactive: 1.32%
CCOc1ccc(NC(=O)Cn2c(=O)n(Cc3ccc(C(=O)NCc4ccc(C)cc4)cc3)c(=O)c3ccccc32)cc1	inactive: -5.87%
COc1cccc(CNC(=O)CN2C(=O)COc3ccc(S(=O)(=O)N4CCCCCC4)cc32)c1	inactive: -22.4%
Cc1ccc(-c2nc3ncccc3o2)cc1NC(=O)c1ccccc1Br	inactive: -16.8%
CCc1cccc(NC(=O)Cn2c(=O)n(CCC(=O)NCC3CCCO3)c(=O)c3cc(OC)c(OC)cc32)c1 (stereo not drawn)	inactive: -2.95%
O=c1cc(-c2ccccc2)oc2ccccc12	active: 62.3%
Cc1ccc(CSC2=Nc3ccccc3C3=NC(CC(=O)NCc4cccs4)C(=O)N23)cc1 (stereo not drawn)	inactive: -33%
CN(C)c1ccc(NC(=O)CN2CCN(CC(=O)Nc3ccc(Br)cc3)CC2)cc1	inactive: -7.64%
Cc1ccc(CNC(=O)c2cc3c(s2)-c2ccc(Cl)cc2SC3)cc1	active: 106%
Cn1c(-c2ccc(S(=O)(=O)N3CCCC3)cc2)csc1=Nc1ccc(Cl)c(Cl)c1	inactive: -5.99%
CC(C)c1ccccc1Oc1c(C(F)(F)F)oc2c(CN3CCN(C)CC3)c(O)ccc2c1=O	inactive: 7.72%
CCOC(=O)c1c(C)c(C(=O)NCc2ccc(Cl)cc2)c(C)n1CC	inactive: -10.4%
CCC1CCc2nc3sc(C(=O)Nc4ccc(F)c(F)c4)c(N)c3cc2C1 (stereo not drawn)	inactive: 4.79%
COc1ccc(NC(=O)CSc2nc3c(c(=O)[nH]2)CCC3)cc1	inactive: 16.2%
O=c1ccn([C@@H]2O[C@H](COP(=O)(O)OP(=O)(O)O)[C@@H](O)[C@H]2O)c(=O)[nH]1	inactive: 3.65%
Brc1ccc(CN2CCc3nc(N4CCN(c5ncccn5)CC4)ncc3C2)cc1	inactive: -17.3%
O=C(Cn1c(=O)n(CCc2ccccc2)c(=O)c2c3c(sc21)CCCC3)Nc1ccc(F)c(F)c1	inactive: 7.67%
CCCc1nnc(NC(=O)Cc2coc3ccc(C)cc23)s1	inactive: 0.0879%
CCOc1ccccc1Nc1sc(C(=O)c2ccc(Cl)cc2)c(N)c1C(=O)NCCc1ccccc1	inactive: -16.3%

Compound	activation
Cc1ccccc1NC(=O)CSc1nc2ccccc2c2nc(CCn3c(C)nc4ccccc43)nn12	inactive: -11.8%
Cc1ccc(CNC(=O)c2cn(C)c3ccc(S(=O)(=O)N4CCOCC4)cc3c2=O)cc1	inactive: -2.19%
COc1ccccc1N1CCN(C(=O)c2cc3c(=O)oc4ccc(C)cc4c3s2)CC1	inactive: -1.48%
COc1ccc(OC)c(S(=O)(=O)Nc2cccc(-c3ccc(N4CCCCCC4)nn3)c2)c1	inactive: -9.88%
CCOc1ccc(-c2nc(CNC(=O)Nc3ccccc3)c(C)o2)cc1	inactive: 17.3%
COc1ccc(NCc2cc3ccc(OC)cc3n(CC(=O)Nc3cccc(OC)c3)c2=O)cc1	inactive: -29.4%
CCn1c(C(=O)N2CCC(C(=O)NCCCOC)CC2)cc2sccc21	inactive: -1.41%
COc1cc(NC(=O)c2nn(-c3ccc(F)cc3)c(=O)n(C)c2=O)cc(OC)c1OC	inactive: -17.6%
O=C(COCc1cc(-c2cccs2)on1)NCc1cccc(Cl)c1	inactive: -12.9%
CC(C(O)c1ccc(O)cc1)N1CCC(Cc2ccccc2)CC1 (stereo not drawn)	inactive: 4.83% and inactive: 3.24%
Cc1cc(C)c(/C=C/c2onc(C)c2S(=O)(=O)N2CCC(C(=O)Nc3ccc(Cl)cc3C)CC2)c(C)c1	inactive: 0.926%
Cc1cn(S(=O)(=O)c2ccc(F)c(Cl)c2)cn1	inactive: 10%
Cc1ccccc1NC(=O)c1c(NC(=O)C(F)(F)F)sc2c1CCCCC2	inactive: 20%
CCOC(=O)C1CCCN(Cc2cn3c(-c4ccc(Br)cc4)nnc3s2)C1 (stereo not drawn)	inactive: 5.57%
CCOc1ccc(NC(=O)Cc2ccc(-n3c(C)nc4cccnc43)cc2)cc1	inactive: -24.5%
COc1ccc(NC(=O)C(=O)NCC(c2cccnc2)N2CCc3ccccc3C2)cc1 (stereo not drawn)	inactive: -7.55%
O=C(CC1N=C2c3ccccc3N=C(SCc3ccccc3Cl)N2C1=O)NCc1cccs1 (stereo not drawn)	inactive: -33.2%
CC(=O)N1CCC(N(Cc2ccco2)C(=O)Nc2ccc(Br)cc2F)CC1	inactive: -4.17%
O=C(Nc1cc(Cl)ccc1Cl)c1cc(S(=O)(=O)N2CCCc3ccccc32)ccc1F	inactive: -21.9%
CCN(CC)CCNC(=O)c1[nH]c2ccccc2c1Sc1ccc(Cl)cc1	inactive: -31.6%
Cc1ccc(NC(=O)CN2C(=O)c3ccccc3Sc3ccc(C(=O)N4CCCC4)cc32)cc1	inactive: -0.3%
COc1ccc(NC(=O)C(NC(=O)/C=C\c2ccc3c(c2)OCO3)c2ccc(OC)cc2)cc1 (stereo not drawn)	inactive: -14.5%
CN(C(=O)c1ccc2c(c1)N(Cc1ccccc1F)C(=O)c1ccccc1S2(=O)=O)C1CCCCC1	inactive: -5.17%
Cc1cc2n(n1)CCC(=O)N2Cc1ccc(C(=O)Nc2ccc(Br)c(C)c2)cc1	inactive: 8.59%
CC1=C(C(=O)Nc2cccnc2)C(c2ccc(Cl)cc2)n2nc(SCc3ccccc3)nc2N1 (stereo not drawn)	inactive: -15.7%
Cc1ccc(-n2nc(C(=O)Nc3cccc(C#N)c3)c3c4ccccc4n(C)c3c2=O)cc1	inactive: -1.79%
